Screen size: about 45,000 compounds; about 65 (0.1%) were called active. Calls come from the whole dose curve; as a rule, active = well fitted activation curve with a large enough effect; inconclusive = small, poorly fitted or top-dose-only effect; inactive = no such curve, though single readings can be large or run the other way. The list shows a part of the results.
Target: Galactocerebrosidase (Homo sapiens) (UniProt P54803)
Assay: A Novel Cell-Based Assay to Identify Small Molecules for B -Galactocerebrosidase; note: 0% is about no effect; nearly all actives have a fitted effect of over 65% in size
Conditions: 145M-Twi-hGALC-G270D cells (Twitcher mouse brain line with human GALC G270D), HMU-beta-Gal fluorescence, 48 h; series mostly up to 57.5 µM; activation: at the top concentration
In short: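 Fluorescence readout: HMU-β-gal cleavage by mutant GALC (0.1 mM final, citrate/phosphate pH 5.2 with 1 mg/mL taurocholate), stopped with carbonate/bicarbonate plus Triton X-100. Cells: murine Twitcher 145M-Twi expressing human G270D GALC; qHTS for activators.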

Chain of UniProt P54803 (P54803 whole entry, looked up): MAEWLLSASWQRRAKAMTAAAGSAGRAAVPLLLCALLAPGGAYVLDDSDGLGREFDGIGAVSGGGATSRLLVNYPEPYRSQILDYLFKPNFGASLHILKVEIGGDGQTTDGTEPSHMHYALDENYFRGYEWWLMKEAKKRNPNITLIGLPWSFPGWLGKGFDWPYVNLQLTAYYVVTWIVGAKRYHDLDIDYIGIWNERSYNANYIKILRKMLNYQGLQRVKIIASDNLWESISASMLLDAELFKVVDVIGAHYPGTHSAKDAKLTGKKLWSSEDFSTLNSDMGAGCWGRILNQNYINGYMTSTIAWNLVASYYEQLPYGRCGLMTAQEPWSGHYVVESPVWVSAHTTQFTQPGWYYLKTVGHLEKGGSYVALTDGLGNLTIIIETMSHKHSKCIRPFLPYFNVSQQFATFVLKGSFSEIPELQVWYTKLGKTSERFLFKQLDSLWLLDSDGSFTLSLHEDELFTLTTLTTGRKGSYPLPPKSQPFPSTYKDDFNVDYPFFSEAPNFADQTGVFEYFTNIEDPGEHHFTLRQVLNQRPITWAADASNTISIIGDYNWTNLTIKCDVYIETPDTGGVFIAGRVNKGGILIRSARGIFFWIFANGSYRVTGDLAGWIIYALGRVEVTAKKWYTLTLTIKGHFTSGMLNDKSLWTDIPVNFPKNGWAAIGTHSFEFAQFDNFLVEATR

activation, inactive:
CCCc1cc(=O)[nH]c(=S)[nH]1 -8.03%
CC1CCCN(Cc2cn3c(-c4cccc(Br)c4)nnc3s2)C1 (configuration not stated) 5.73%
O=C(NCCc1ccc(Cl)cc1)c1ccc(Cn2c(=O)c3cccn3c3cccnc32)cc1 -6.82%
c1csc(C2=NC(c3ccncc3)=Nc3ccccc3N2)c1 -13.8%
CC(=O)N1CCc2cc(CNS(=O)(=O)c3ccc(Br)s3)ccc21 -7.3%
O=C(CSC1=Nc2ccccc2N=C(c2ccc(F)cc2)C1)NCc1ccccc1 -15.7%
Cc1ccc(C)c(N2CCN(C(=O)CCCCCn3c(=O)[nH]c4ccccc4c3=O)CC2)c1 -22.2%
Cc1ccc(C)c(Cn2c(SCC(=O)N(C)Cc3ccccc3)nc3ccccc32)c1 -12.5%
CCc1ccccc1NC(=O)C(=O)NCC(c1cccnc1)N1CCc2ccccc21 (configuration not stated) -14%
Cc1ccc(-c2nnc(Nc3ccc(S(N)(=O)=O)cc3)c3ccccc23)cc1S(=O)(=O)N1CCOCC1 -19.8%
CCOc1ccc(-c2cc(C(=O)N3CCN(c4cccc(C)c4)C(C)C3)c3ccccc3n2)cc1 (configuration not stated) 16.8%
CN(C(=O)CSc1nc2ccc(NC(=O)CCc3ccccc3)cc2s1)c1ccccc1 -26.2%
Cc1ccccc1OCC(=O)Nc1ccc2nc(SCCOc3ccccc3)sc2c1 -11%
O=C(CSc1nc2ccccc2nc1Cc1ccc(Cl)cc1)N1CCN(c2ccccc2F)CC1 -15.6%
CCc1cccc(NC(c2nnc(-c3ccccc3)o2)c2ccc(F)cc2Cl)c1 (configuration not stated) -4%
Cc1ccc(NC(=O)NCC2CCN(Cc3cccc(Cl)c3)CC2)cc1Cl -29.2%
CCCC(=O)Nc1cc(-c2nc3cccnc3s2)ccc1C -9.72%
CCOC(=O)c1ccc(NC(=O)C2CC(=O)N(c3ccc(C(C)C)cc3)C2)cc1 (configuration not stated) 1.89%
COc1ccc(C(=O)Nc2ccc3oc(-c4ccc(OC)cc4)nc3c2)cc1 -19.8%
CC(NC(=O)c1cccc(NC(=O)c2nsc3ccccc23)c1)c1ccccc1 (configuration not stated) -6.75%
COc1ccc2c(c1)Cc1sc(NC(=O)c3cccc(F)c3)nc1-2 0.0641%
CC(=O)Nc1ccc(S(=O)(=O)NC2(C(F)(F)F)C(=O)Nc3c2c(=O)[nH]c(=O)n3-c2ccc(C)c(C)c2)cc1 (configuration not stated) -11.3%
Cc1cccc(NC(=O)CCNS(=O)(=O)c2cccc3nonc23)c1 -7.56%
Cc1ccc(C(=O)CSc2nnc(-c3ccccc3)n2-c2ccccc2)cc1 -6.53%
CCOc1ccc(NS(=O)(=O)c2ccc3[nH]cc(C(=O)NC4CCCC4)c(=O)c3c2)cc1 -14.3%
CCOc1ccc(C(=O)c2cn(Cc3ccc(OC)cc3)c3cc(OC)c(OC)cc3c2=O)cc1 -20.4%
CCN1c2ccccc2-c2nc(SCC(=O)Nc3c(C)cc(C)cc3C)ncc2S1(=O)=O -0.933%
